In all, about 110,000 compounds went through this assay and about 230 (0.21%) showed an effect of 50% or more. This is one part of the list.
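Further: 30 min substrate incubation versus DMSO and 10 µM JCP410 controls.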

DPAP1, sequence (Q8IIJ9 whole entry, looked up): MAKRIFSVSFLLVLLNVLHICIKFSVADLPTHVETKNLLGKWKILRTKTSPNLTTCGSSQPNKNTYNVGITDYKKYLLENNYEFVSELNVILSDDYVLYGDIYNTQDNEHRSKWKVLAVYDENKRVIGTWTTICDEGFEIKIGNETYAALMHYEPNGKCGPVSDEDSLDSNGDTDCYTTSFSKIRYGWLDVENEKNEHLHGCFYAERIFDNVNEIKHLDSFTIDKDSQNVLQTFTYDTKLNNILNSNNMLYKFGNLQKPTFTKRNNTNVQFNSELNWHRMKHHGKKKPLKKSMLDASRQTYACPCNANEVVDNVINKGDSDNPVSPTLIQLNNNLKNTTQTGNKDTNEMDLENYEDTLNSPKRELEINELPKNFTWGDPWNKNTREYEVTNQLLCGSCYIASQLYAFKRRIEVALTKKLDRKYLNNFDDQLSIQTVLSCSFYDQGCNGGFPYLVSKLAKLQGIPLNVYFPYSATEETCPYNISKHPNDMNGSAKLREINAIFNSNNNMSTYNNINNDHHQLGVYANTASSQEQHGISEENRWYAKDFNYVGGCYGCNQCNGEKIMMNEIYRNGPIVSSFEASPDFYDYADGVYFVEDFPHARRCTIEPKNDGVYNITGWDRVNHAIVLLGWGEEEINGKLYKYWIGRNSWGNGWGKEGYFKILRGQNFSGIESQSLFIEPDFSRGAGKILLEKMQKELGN

This assay has as its target DPAP1 (Plasmodium falciparum, UniProt Q8IIJ9). The assay can be described thus: primary screen, percent inhibition; read by cleavage of a fluorogenic dipeptide substrate; higher = more effect of the substance. Also noted: species or system P. falciparum D10 trophozoite lysates; single well.
Take `N#Cc1ccc(-n2nnc3ccccc32)cc1`: the “% Inhibition @ 10 uM” value worked out at 2.99%. Next, `Cc1ccc(C(=O)Nc2c(C)nn(Cc3ccc(Cl)cc3)c2C)cc1`: -2.99%; `N#Cc1c(-n2ncnc2-c2ccc(Cl)cc2Cl)sc2c1CCCCC2`: 2.65%; `CC(=O)c1cccc(NC(=O)CSc2ncccn2)c1`: 0.643%. The result for `CC(C)N(Cc1nc(-c2ccccc2)no1)C(=O)C(c1ccccc1)c1ccccc1` reads -3.06%; that for `Oc1c2c(nc3nc(NCc4cccs4)nn13)CCC2`, -2.62%. The result for `CC(=O)NC1=NN(C(C)=O)C(C)(CS(=O)(=O)c2ccc(C)cc2)S1` (centres unmarked) reads 3.53%. Consider `COc1ccc2c(Cl)c(C(=O)N3CCCC3)sc2c1`, for which the “% Inhibition @ 10 uM” value is 0.565%. As to `O=C(c1cccc(F)c1)N1CCN(c2ccc(Cl)cc2)CC1`, the “% Inhibition @ 10 uM” value is reported as 1.27%. Regarding `COc1ccc(CCNC(=O)c2csc3c2CCCC3)c(OC)c1`, the “% Inhibition @ 10 uM” value is on record as -5.05%. Next, `O=C(c1cnn(-c2ccccc2)c1-n1cccc1)N1CCC(C(=O)N2CCc3ccccc3C2)CC1`: -5.19%; `COc1ccc(CN2CCN(Cc3cccc(Cl)c3)CC2)c(OC)c1OC`: -10.5%; `OC1(c2ccccc2)CCC(O)(c2ccccc2)CC1` (centres unmarked): -3.9%. On to `O=C(c1ccncc1)N1CCN(Cc2ccc(Br)cc2)CC1`, for which the “% Inhibition @ 10 uM” value is given as -3.13%.

For the compound `COc1ccc(-c2nc(CSc3nnc(C)n4c3cc3oc(C)cc34)c(C)o2)cc1`, the “% Inhibition @ 10 uM” value is listed as 3.61%. Next, `O=C(c1ccccc1)c1ccc2nc(N3CCN(C(=O)c4ccco4)CC3)c3nncn3c2c1`: 4.05%; `CCC(C)NC(=O)CCCn1nc(C)n2c(cc3sccc32)c1=O` (centres unmarked): 0.137%. The result for `CCOc1ccccc1CNC(=O)C1=Cc2sc(C)c(C)c2CS1` reads 5.4%. Next, `CC1CCN(C(=O)c2ccc(-n3ccc4ccccc43)s2)CC1`: 5.72%; `O=C(NCc1ccccc1)C12CC3CC(CC(Cl)(C3)C1)C2`: -1.77%. Regarding `O=C(Nc1ccc2c(c1)OCCO2)c1ccc(Br)o1`, the “% Inhibition @ 10 uM” value is recorded as -0.598%. For `COc1ccc(OC)c(C2C3=C(CC(C)(C)CC3=O)OC3=C2C(=O)CC(C)(C)C3)c1`, the “% Inhibition @ 10 uM” value is listed as -5.15%.

Take `Cn1cc(/C=C(\NC(=O)c2ccco2)C(=O)NCc2ccccc2)c2ccccc21`: the “% Inhibition @ 10 uM” value is recorded as -0.0235%. Next, `Cc1ccccc1C(=O)N1CCN(C2=C(Cl)C(=O)c3ccccc3C2=O)CC1`: 1.84%; `CC(=O)NC1=C(Cl)C(=O)c2ccccc2C1=O`: 0.974%; `CSc1nc2sc3c(c2c(=O)n1Cc1ccccc1)CCC3`: 4.57%. The result for `Cn1c(=O)c2c(-c3ccccc3Cl)n(CC3CCCO3)cc2n(C)c1=O` (centres unmarked) reads -1.35%; that for `O=C(Nc1cccnc1)c1ccc(-c2ccccc2)cc1`, -4.66%; that for `Cc1ccccc1Cn1c(C)c(CNCCc2c[nH]c3ccccc23)c(C(=O)O)c1C`, 8.86%. The result for `N#Cc1c(NC(=O)c2ccco2)sc2c1CCCCC2` reads -2.51%; that for `Cc1cc(C)c(S(=O)(=O)Nc2cccc(C(F)(F)F)c2)c(C)c1`, -3.48%; that for `COc1ccc(CN2CCN(Cc3cccnc3)CC2)cc1OC`, -8.23%.

Take `CCCNC(=O)C1C2C=CC3(CN(Cc4ccccc4Cl)C(=O)C13)O2` (centres unmarked): the “% Inhibition @ 10 uM” value is recorded as -6.4%. The result for `CC(C)(C)C1CCC(NCCN2CCCCC2)CC1` (centres unmarked) reads -5.9%.

For `O=CN1CCN(Cc2ccc(F)c(Br)c2)CC1`, the “% Inhibition @ 10 uM” value is listed as -3.6%.

For the compound `CCCCSc1nc(O)cc(=O)n1CC`, the “% Inhibition @ 10 uM” value was -0.833%. With `COc1ccc(/C=C(/NC(=O)c2ccc(Cl)cc2Cl)C(=O)N2CC(C)OC(C)C2)cc1` (centres unmarked), the “% Inhibition @ 10 uM” value was -1.06%.

Take `CCOC(=O)C1=C(C)N=c2s/c(=C\c3ccccc3F)c(=O)n2C1c1ccc(Cl)cc1` (centres unmarked): the “% Inhibition @ 10 uM” value is listed as -1.5%. Next, `O=[N+]([O-])c1cccc2cc(F)c(F)cc12`: 2.62%. Consider `COc1ccc(OC)c(C2C3C(=NN2C(C)=O)C2CCN3CC2)c1` (centres unmarked), for which the “% Inhibition @ 10 uM” value stood at 2.57%. The result for `COc1cccc(S(=O)(=O)NCC(=O)N2CCCC2)c1` reads -3.37%; that for `CCN(CC)S(=O)(=O)c1nnc(NC(=O)c2ccc(F)cc2)s1`, 3.3%. `Cc1ccc(NC(=O)COc2ccc(Br)cc2Br)cc1`: the “% Inhibition @ 10 uM” value came out at 1.33%.

With `N#CC1=C(SCc2ccccc2)SC(CO)NC1=O` (centres unmarked), the “% Inhibition @ 10 uM” value is -1.72%. Next, `Fc1ccc(CNc2nc3ccccc3c3nc(-c4ccccc4)nn23)cc1`: -6.07%; `O=[N+]([O-])c1ccc(CN2CCN(Cc3ccccc3)CC2)cc1`: 1.63%; `Cc1oc(-c2ccc(Cl)cc2)nc1CSc1nncn2c1cc1occc12`: -4.99%. Next, `CC(C)OCCCNC(=O)CN1C(=O)C(c2ccccc2)Oc2cccnc21` (centres unmarked): -2.68%; `Cc1ccc(C(=O)Nc2ccc(S(=O)(=O)N3CCC(C)CC3)cc2)cc1C`: 3.17%; `COc1cccc(NC(=O)c2sc3ccccc3c2Cl)c1OC`: -3.46%. Next, `N#CC12C(N)=NC3(OCCO3)C1(C#N)C2c1ccc(Cl)cc1` (centres unmarked): -1.33%; `Cc1ccc(CNC(=O)CSCc2ccccc2)cc1`: 3.05%.

As to `Cc1ccc(C(=O)NCCCNC(=O)c2ccc(C)cc2)cc1`, the “% Inhibition @ 10 uM” value was found to be 3.21%. The result for `CCOC(=O)C1=CN(Cc2ccc(F)cc2)C=C(C(=O)OCC)C1c1cccc(O)c1` reads -1.48%. Next, `COc1ccc(OCC(NC(=O)Cn2ncc3ccccc3c2=O)C(C)C)cc1` (centres unmarked): -2.84%. `COc1ccc(-c2nnc3c4ccccc4c(C)nn23)cc1S(=O)(=O)NCCN1CCOCC1`: the “% Inhibition @ 10 uM” value was -3.64%. The result for `Cc1cn(-c2nc(-c3ccccc3)oc2-c2ccccc2)c(=O)nc1N1CCCCC1` reads 4.42%; that for `O=C(O)c1cn(C2CC2)c2c(F)c(N3CCSCC3)c(F)cc2c1=O`, -5.58%; that for `CC(C)(C)NC(=O)C1C(=O)NC2(C)CC1c1ccccc1O2` (centres unmarked), -7.9%. Next, `CCCCOc1ccccc1/C=c1\sc2nc(-c3ccco3)nn2c1=O`: -5.51%. The result for `O=C(NCc1ccccc1Cl)C1CCC(CNc2c(N3CCCC3)c(=O)c2=O)CC1` (centres unmarked) reads 7.38%. As to `CCc1ccc(OC(C)C(=O)N(Cc2ccco2)C2CCS(=O)(=O)C2)cc1` (centres unmarked), the “% Inhibition @ 10 uM” value came to 5.29%. Next, `CC(=O)/C=C/c1cn(C)c2ccccc12`: -1.56%; `COc1cccc(C2CC(c3ccc(OC(F)F)cc3)n3ncnc3N2)c1` (centres unmarked): 0.0842%; `CCCOc1ncnc2sc3c(c12)CCCC3`: -4.69%.

For the origin of these results see PMC6919601, “Identification of Plasmodium dipeptidyl aminopeptidase allosteric inhibitors by high throughput screening” (PLoS ONE, 2019).
